Data taken from the RNAGym collection of RNA variant scans (doi:10.1093/nar/gkz1192).
The source gives no read counts; variants with many changes may rest on few reads.

B1: CPEB3 Ribozyme (parent)
chain: UAACAGGGGGCCACAGCAGAAGCGUUCACGUCGCAGCCCCUGUCAGAUUCUGGUGAAUCUGCGAAUUCUGCUGUAUAUCUC

Variants of: B1
Assay: self-cleavage, relative activity (ratio to wild type); higher = more cleavage; in vitro, sequencing
Summary of the method: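 For each CPEB3 ribozyme variant, relative activity is its cleaved/total read fraction divided by the unmutated ribozyme's. Barcoded error-prone PCR libraries were transcribed by T7 RNA polymerase (5 hours, 37°C) and held in DNase I for 15 min before an EDTA stop, with cleavage occurring throughout. Template-switching reverse transcription and Illumina sequencing were used to read the RNAs. A 5-read minimum applied, and results are the mean of three batches.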

Row | Variant | self-cleavage
1 | G8A A15U G61A U66C | 0.12
2 | G8A A15U U31C A47G G61A C62G U78C | 0.08
3 | G8A A15U U48C U51A | 0.07
4 | G8A A18G U25A G36A U80C | 0.04
5 | G8A A18G U31C C40U C44U A57G U67C | 0.03
6 | G8A A18G U58C U72A | 0.06
7 | G8A A18U A57G A65G U74A U80C | 0.04
8 | G8A A18U G19A C40A | 0.05
9 | G8A A18U U48A | 0.25
10 | G8A A18U U54C A77U | 0.04
11 | G8A A20G G30U A47G G55A U60C | 0.06
12 | G8A A20G G33A U49A U54G C68U | 0.04
13 | G8A A20G U25G A47G | 0.07
14 | G8A A20G U48C U54C | 0.14
15 | G8A A20U U31C U43C U78C | 0.05
16 | G8A A21G A28G C32U U49C A57U | 0.03
17 | G8A A21G A35G G55C | 0.08
18 | G8A A21G U25C A35G A56G U60A | 0.06
19 | G8A A21G U26A | 0.06
20 | G8A A21U U25C A35G U41A | 0.05
21 | G8A A28G A56C A65U U67A | 0.07

Row | Variant | self-cleavage
22 | G8A A28G U48C U51C U72C U78C | 0.05
23 | G8A A28G U49C | 0.25
24 | G8A A28U A35U G36U U60C | 0.05
25 | G8A A28U U41C U76C A77G | 0.11
26 | G8A A35G A56G U72C | 0.63
27 | G8A A35G C40U A45U U72A A77U U78C | 0.04
28 | G8A A35G U41A A64G | 0.06
29 | G8A A35G U43A U51A U66A U72C A77G | 0.13
30 | G8A A45G U49C A64U | 0.15
31 | G8A A45U U60A | 0.09
32 | G8A A47G A56U C62U U69C | 0.16
33 | G8A A47G U54C U67C | 0.04
34 | G8A A56G U80A | 0.28
35 | G8A A57G U80C | 0.07
36 | G8A C11A U67C | 0.05
37 | G8A C11U A20U A47G U51A | 0.05
38 | G8A C12G A20G U54C U66C | 0.05
39 | G8A C12U C14U A45G | 0.14
40 | G8A C12U C44U | 0.07
41 | G8A C14G U51C U66C A75U U78A | 0.05
42 | G8A C23G U26C U41A U69C U74A | 0.04

Row | Variant | self-cleavage
43 | G8A C23U U48C U49C A57G U67C U76C | 0.04
44 | G8A C34U A64G | 0.04
45 | G8A C40A A77U | 0.22
46 | G8A C40A U72A | 0.1
47 | G8A G9A A15U G24A | 0.22
48 | G8A G9U U80C | 0.42
49 | G8A G10A A15U C29U U60C | 0.05
50 | G8A G10A C29U G55C | 0.14
51 | G8A G10A G24U A75U | 0.18
52 | G8A G10A U60G C68U | 0.04
53 | G8A G10U A15U G16C U31C A35G A65G | 0.17
54 | G8A G10U A28U U67C | 0.04
55 | G8A G16U A28G U31C U69C | 0.07
56 | G8A G24A U25G U51A G52A U72C | 0.05
57 | G8A G24C A65G U80C | 0.11
58 | G8A G24U U58G A65G C71U U80C | 0.04
59 | G8A G33U C38A U41C U49C A65G U67C | 0.02
60 | G8A G36A A64G U72G | 0.04
61 | G8A G36A C39U U48A A65G | 0.05
62 | G8A G42A A45G U60C C79U | 0.19
63 | G8A G53A A64U U72C U74C | 0.07

Row | Variant | self-cleavage
64 | G8A G61A C62G A65G | 0.06
65 | G8A U25A U26C U41A A57G U69C | 0.05
66 | G8A U25A U31C A35U U74C | 0.04
67 | G8A U25C A65G C81A | 0.05
68 | G8A U25C G55A U80A | 0.08
69 | G8A U25C U26A U41A U51G U74C | 0.2
70 | G8A U25G U49C U78C | 0.05
71 | G8A U26A A47U A57U A64G A65G U74C | 0.03
72 | G8A U26A A56U U58C | 0.06
73 | G8A U26A A56U U72A U78C | 0.04
74 | G8A U26C A45G U60C A64G U67C | 0.04
75 | G8A U26C G36A U60C | 0.12
76 | G8A U26C U69C | 0.1
77 | G8A U31C A65U U69C U72C | 0.06
78 | G8A U31C C62G U72C | 0.17
79 | G8A U31C U51A U58C A64C U74G | 0.04
80 | G8A U31G A64G | 0.06
81 | G8A U41A A57U | 0.36
82 | G8A U41A U54C U67A C79U | 0.06
83 | G8A U41C U51A U66C | 0.32
